Source: the supplement of paper PMC11417369
± gives the standard deviation of the averaged measurements. The list shows a part of the results.

System: PfAP2-I AP2 domain 3 (GST-tagged)
Experiment: gcPBM binding intensity (ln(normalized median fluorescence intensity)); higher = stronger DNA binding
In short: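 GST-tagged P. falciparum DNA-binding domains, expressed in E. coli (about 25 μg on average), were applied for 1 h to an Agilent 4 × 180k array of primer-extended double-stranded 36-bp intergenic genomic probes plus negative controls. The binding buffer was 1× PBS with 1% milk, 0.2 mg/ml BSA, 0.5% salmon testes DNA and 0.03% Triton X-100. Bound protein was detected with Alexa488 anti-GST antibody and scanned at 488 nm. Binding intensity is the highest Masliner-normalised natural-log median intensity across replicate spots of either probe orientation.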

Sequence	gcPBM binding intensity (ln)
AATGGATATTTCTTTATATATATCTTATTTGATTAT [XGTACX_negctrl_site284]	7.32 ± 0.45
TTTCTATTCCATTCAACACACAAAAATGTATGCTTT [CACACA_site1072]	7.87 ± 0.49
TTTTTTTTTTTTTTGGTGCGTTTATATATAAATATA	10.4 ± 0.86
GGAATTATATGAAATAAACACACATATGTAATATTA [CACACA_site8586]	7.53 ± 0.67
AAAATCTAATATAATGCACACATAAAAAAAAAATCA [CACACA_site8871]	11 ± 0.68
TACATCGACCTATGTACATGCAAATTATTTTTATTT [TGCATGCA_site182]	7.92 ± 0.36
CTTTTAATATGTGTAGTGCATTTTTTTTTTTTTTTT [GTGCAC_site9727]	10.19 ± 0.035
AAAAAAAAAAAAAACACACACAACACCCATACCTTA [CACACA_site3621]	8.45 ± 0.45
GTCCTTCATCATATTTAACACACAGAGAAAAAGCGG [CACACA_site7979]	8.4 ± 0.2
TAAATACAGAAACACACACACAAATATATACATACA [CACACA_site2880]	7.64 ± 0.52
AATTCTTTTTTCAACACACACACACTAGAAAATATA [CACACA_site5681]	8.1 ± 0.43
TTTATATATTATTAATGTACAAAATTTTTATTGCAT [XGTACX_site3329]	7.95 ± 0.39
ACCTGGACAAAAATAAATAAATAAATAAATAAATGA [GTGCAC_negctrl_site238]	7.88 ± 0.4
ACATTAAGACACATTGCACACGTGCACCCATAGAAA [CACACA_site8029]	10.965 ± 0.007
TTTTGGATCATTTGTTGTACATATGCAAAAAAAAAA [XGTACX_site3157]	8.25 ± 0.37
TATGATACATAATATACATGCATACACAACATTCAG [TGCATGCA_site487]	7.87 ± 0.56
GATATGTGACGTTTGGTATTTTTGATGTTGGTAGGA [CACACA_negctrl_site1448]	7.72 ± 0.61
GCCCAACCAAAATATACACACAGTTGAATGAATAAA [CACACA_site2597]	7.73 ± 0.44
TATATTTGGAAATATTCTCAATTGGTACAAATAAAA [CACACA_negctrl_site1202]	8.14 ± 0.2

Sequence	gcPBM binding intensity (ln)
TAAAAGAAATATACATGTACATAAATATATATATAT [XGTACX_site1276]	9.085 ± 0.064
ATTTTTTTGTGTTTGGTACACACGTTATAAAAAATA [CACACA_site1345]	8.13 ± 0.3
TTGGTAATAATTTGAGGTACACTGTATAAATTTTTT [XGTACX_site909]	7.83 ± 0.46
AATAATAAATTATGGTGTACGCATTTGTATATATAC [XGTACX_site5417]	8.16 ± 0.2
TTTTTTTCTTAAAGATGTACTTTTTTAAAATAATCT [XGTACX_site3663]	7.76 ± 0.46
AAATGAAAATAAAGCAACAGAAATATAATGTATTAT [GTGCAC_negctrl_site508]	7.96 ± 0.7
ACATTTTATACGATAAAATGTATAAGATTATGAAGA [TGCATGCA_negctrl_site476]	7.67 ± 0.49
AAAATAATAACATTGTGTACATAAAAAGAAAACCTT [XGTACX_site840]	7.96 ± 0.49
TTATGTCATAAATGCACACATATATATATACATATA [CACACA_site1588]	9.8 ± 0.28
AGGCACGTGTTATATACACACATAATCAAATAAACT [CACACA_site7852]	8.11 ± 0.61
TATGAATGGTTAAGTACACACATATTAATATATGTA [CACACA_site3490]	7.76 ± 0.028
CTATCTACATAAACGTGTACCCACAAATAAATAAAT [XGTACX_site5210]	8.89 ± 0.33
TTAACCTTTTGATATTGTACCCATAATCTAATACAA [XGTACX_site769]	7.99 ± 0.61
TTTTTTAAAAAAGTTTTCTGTATTTATATATATATA [CACACA_negctrl_site31]	9.275 ± 0.049
TCATATGTATAAATTAGTACATATTTAATGGATATA [XGTACX_site3298]	7.59 ± 0.44
ATAAATTTATCCAAGTGTACAAAGCTAACATTTTTT [XGTACX_site4399]	7.77 ± 0.61
CATCCTATTACTTGGTGTACTATTTTATATTGAATA [XGTACX_site1050]	8.17 ± 0.52
ATAAACAAGACGCAACAAAGTAGAAATTAAAAATAA [CACACA_negctrl_site345]	7.58 ± 0.7
AAAAATGGAATTATCTGTACATATATAGTTTTTAAA [XGTACX_site5580]	7.44 ± 0.33

Sequence	gcPBM binding intensity (ln)
GTTTATAAAATAAGAAGTACTTTATGAGAACCATAT [XGTACX_site5789]	7.94 ± 0.41
TGGTACCTTACTTTTACACACTTTTTTTTTTTTTTT [CACACA_site1557]	8.35 ± 0.59
TTTTGAGTAGCCTATTGTACGAACTTTTTAAATACA [XGTACX_site1224]	7.67 ± 0.4
CCATTTTAAATATGCACACAGATGCACTAACACATT [CACACA_site5099]	10.4 ± 0.11
AATATATACGCATGCGCACACACAAGTGGGAAATTT [CACACA_site1786]	8.38 ± 0.71
CACCCATAAATATACACACGCACAACACAAAATAAA [CACACA_site2903]	8.24 ± 0.21
ATATATATATATACATGTACAAATGTATAACAAATG [XGTACX_site145]	9.02 ± 0.51
TTTTTTTACAACATTACACACAAATATTCTGTGTTA [CACACA_site5957]	7.94 ± 0.76
AACATTTTAAAACAGACACACACCAAAAAAAAAAAA [CACACA_site257]	8.14 ± 0.78
AATCGTGTTCTGAATACACACTAATACAAATTTGTA [CACACA_site6058]	7.86 ± 0.7
AACAAAAATAATAATCAAATAAATAAATGAAAACAT [CACACA_negctrl_site456]	7.78 ± 0.61
AGAAAATTAAAAAGAACACACAAATATATATATAAT [CACACA_site5896]	7.63 ± 0.66
ATATTACAACATTTTATACACACGTGATTATTAATT [CACACA_site2877]	7.93 ± 0.57
TGATACTTATGATAAATACACACTTGAAATTAAGGA [CACACA_site1152]	7.59 ± 0.71
ATGATATACGTAAACACACAAATAAAAAAAATTTAT [CACACA_site7544]	7.8 ± 0.47
TATATAGCATATTTCACACACACATAATGAATATTA [CACACA_site3546]	7.7 ± 0.36
TTAAAAAGAAAGTTCACACACATATAGATGACGGAA [CACACA_site7268]	7.92 ± 0.73
TTTTTTAGTTTTTAGTGTACATAAATAAATAAATAA [XGTACX_site2843]	8.29 ± 0.64
